Among the data in publication PMC5364396 are binding values, retold here.

The chains behind the UniProt entries cited, without tags or fusion partners.
UniProt Q02880: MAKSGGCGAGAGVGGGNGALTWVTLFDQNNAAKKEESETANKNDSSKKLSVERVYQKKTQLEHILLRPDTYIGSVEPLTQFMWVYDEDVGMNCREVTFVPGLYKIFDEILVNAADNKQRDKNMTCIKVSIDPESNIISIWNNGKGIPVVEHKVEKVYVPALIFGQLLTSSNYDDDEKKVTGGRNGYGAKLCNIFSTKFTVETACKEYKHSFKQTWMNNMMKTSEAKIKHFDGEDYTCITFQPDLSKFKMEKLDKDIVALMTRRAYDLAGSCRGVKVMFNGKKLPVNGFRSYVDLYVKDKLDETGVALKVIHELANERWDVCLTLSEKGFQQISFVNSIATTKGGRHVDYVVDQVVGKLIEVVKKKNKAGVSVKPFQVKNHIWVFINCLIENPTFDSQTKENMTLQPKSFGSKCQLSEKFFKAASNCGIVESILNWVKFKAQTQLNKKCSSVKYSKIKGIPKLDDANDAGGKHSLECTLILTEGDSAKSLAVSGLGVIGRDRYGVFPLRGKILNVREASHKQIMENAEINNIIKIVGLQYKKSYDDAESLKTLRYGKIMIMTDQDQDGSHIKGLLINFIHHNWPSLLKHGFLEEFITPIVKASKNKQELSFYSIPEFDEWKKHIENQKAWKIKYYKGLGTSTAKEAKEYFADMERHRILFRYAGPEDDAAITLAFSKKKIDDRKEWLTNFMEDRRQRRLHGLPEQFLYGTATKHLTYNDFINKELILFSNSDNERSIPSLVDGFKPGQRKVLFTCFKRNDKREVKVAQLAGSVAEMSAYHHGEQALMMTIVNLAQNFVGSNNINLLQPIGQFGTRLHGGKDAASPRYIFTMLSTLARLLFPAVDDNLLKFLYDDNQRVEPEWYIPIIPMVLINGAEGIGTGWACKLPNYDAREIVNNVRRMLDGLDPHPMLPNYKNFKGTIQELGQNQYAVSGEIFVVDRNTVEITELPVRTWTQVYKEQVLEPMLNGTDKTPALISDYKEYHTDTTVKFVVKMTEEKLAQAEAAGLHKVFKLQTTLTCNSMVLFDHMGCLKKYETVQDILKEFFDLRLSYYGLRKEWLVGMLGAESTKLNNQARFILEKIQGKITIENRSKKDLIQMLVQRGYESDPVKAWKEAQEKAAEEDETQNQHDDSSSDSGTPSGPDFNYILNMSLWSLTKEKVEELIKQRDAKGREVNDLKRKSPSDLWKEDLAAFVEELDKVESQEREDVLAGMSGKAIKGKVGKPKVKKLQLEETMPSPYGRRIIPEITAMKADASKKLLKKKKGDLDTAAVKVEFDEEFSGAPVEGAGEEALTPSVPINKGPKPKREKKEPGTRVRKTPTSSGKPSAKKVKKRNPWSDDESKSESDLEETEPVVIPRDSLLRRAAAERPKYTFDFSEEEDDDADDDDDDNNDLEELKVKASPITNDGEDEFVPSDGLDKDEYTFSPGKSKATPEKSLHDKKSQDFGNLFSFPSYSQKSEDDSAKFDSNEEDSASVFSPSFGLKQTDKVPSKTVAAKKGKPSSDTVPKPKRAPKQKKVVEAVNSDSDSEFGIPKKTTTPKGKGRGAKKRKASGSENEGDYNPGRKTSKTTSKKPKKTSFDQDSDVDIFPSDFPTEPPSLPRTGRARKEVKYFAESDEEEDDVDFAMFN
UniProt Q9HCK8: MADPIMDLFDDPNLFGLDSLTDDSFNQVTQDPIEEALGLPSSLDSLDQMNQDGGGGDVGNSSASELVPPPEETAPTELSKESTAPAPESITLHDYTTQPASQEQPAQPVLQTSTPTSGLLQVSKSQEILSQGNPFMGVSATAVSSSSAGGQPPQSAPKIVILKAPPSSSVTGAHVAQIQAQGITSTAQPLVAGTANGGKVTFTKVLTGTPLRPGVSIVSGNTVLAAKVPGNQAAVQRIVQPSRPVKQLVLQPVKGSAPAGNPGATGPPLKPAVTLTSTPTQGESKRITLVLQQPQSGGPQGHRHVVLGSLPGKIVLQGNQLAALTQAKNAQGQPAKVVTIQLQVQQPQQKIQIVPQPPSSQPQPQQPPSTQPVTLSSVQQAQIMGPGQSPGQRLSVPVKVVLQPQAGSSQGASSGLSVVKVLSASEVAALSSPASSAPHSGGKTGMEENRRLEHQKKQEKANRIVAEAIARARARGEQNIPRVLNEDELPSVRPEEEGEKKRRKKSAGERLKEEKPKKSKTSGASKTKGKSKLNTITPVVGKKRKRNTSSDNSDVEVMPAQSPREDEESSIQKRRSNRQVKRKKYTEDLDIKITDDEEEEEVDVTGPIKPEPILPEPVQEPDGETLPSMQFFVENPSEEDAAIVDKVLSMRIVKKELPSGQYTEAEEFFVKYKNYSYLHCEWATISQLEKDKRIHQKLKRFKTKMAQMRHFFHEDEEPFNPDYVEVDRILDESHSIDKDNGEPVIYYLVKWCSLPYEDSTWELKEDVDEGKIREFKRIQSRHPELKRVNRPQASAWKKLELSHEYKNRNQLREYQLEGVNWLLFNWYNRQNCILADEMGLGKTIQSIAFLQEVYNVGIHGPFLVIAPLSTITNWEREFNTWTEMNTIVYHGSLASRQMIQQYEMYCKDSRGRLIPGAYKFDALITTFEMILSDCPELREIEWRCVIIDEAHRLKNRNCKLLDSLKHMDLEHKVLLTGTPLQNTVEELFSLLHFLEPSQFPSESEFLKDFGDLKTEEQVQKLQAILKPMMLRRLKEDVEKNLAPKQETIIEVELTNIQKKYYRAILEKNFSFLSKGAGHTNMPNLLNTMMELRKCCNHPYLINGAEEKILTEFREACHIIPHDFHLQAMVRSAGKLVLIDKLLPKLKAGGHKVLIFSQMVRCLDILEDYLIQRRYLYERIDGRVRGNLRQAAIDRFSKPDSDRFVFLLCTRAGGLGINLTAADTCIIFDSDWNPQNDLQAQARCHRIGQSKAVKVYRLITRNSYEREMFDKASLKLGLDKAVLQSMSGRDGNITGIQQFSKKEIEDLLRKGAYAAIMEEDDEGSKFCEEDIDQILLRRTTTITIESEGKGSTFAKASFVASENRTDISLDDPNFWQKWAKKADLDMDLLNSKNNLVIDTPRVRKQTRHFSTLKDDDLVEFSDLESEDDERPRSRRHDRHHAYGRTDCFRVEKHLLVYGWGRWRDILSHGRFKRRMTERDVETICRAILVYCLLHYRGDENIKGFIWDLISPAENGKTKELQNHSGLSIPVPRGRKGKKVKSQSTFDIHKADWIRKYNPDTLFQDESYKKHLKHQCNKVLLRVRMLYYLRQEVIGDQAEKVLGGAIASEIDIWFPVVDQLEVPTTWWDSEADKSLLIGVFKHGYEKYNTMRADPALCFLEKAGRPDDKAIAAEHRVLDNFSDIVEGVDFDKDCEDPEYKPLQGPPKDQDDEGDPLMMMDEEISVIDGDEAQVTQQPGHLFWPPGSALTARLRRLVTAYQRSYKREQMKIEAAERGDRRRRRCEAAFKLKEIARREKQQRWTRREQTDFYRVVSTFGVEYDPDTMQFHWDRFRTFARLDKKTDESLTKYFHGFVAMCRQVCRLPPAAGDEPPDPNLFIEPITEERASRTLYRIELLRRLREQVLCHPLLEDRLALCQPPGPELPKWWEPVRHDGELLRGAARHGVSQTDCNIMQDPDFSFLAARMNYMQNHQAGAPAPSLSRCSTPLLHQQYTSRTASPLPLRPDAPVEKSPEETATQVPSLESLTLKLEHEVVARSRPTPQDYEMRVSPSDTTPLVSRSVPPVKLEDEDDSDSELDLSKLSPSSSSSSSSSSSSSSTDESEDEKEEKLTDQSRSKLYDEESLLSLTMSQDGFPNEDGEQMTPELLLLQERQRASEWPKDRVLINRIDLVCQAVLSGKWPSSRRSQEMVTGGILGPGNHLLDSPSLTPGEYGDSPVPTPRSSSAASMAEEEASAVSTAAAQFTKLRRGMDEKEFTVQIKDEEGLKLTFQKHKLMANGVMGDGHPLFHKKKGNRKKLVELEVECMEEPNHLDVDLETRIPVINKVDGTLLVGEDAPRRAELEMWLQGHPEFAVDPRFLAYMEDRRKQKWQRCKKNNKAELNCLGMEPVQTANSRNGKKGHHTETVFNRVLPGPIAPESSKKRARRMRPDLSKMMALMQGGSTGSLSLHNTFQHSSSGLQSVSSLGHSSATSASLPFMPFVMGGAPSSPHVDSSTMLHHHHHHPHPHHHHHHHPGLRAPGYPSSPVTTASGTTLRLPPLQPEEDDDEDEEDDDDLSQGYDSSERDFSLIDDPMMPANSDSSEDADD
UniProt P12956: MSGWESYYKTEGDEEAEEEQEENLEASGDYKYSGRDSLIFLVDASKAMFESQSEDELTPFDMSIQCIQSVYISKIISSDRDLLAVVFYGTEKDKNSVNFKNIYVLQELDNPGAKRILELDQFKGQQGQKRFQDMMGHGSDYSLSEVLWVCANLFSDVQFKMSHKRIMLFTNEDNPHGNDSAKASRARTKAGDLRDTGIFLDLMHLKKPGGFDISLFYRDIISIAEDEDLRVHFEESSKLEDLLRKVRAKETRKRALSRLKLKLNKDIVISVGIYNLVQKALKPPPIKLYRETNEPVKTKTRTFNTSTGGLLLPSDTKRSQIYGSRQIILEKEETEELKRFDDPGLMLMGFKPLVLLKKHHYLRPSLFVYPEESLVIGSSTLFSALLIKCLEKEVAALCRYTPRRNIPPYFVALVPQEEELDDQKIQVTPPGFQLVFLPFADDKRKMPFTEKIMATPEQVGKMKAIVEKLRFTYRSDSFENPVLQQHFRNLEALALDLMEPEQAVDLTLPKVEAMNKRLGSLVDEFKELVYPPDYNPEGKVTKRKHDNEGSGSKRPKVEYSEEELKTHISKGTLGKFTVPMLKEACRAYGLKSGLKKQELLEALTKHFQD
UniProt P09874: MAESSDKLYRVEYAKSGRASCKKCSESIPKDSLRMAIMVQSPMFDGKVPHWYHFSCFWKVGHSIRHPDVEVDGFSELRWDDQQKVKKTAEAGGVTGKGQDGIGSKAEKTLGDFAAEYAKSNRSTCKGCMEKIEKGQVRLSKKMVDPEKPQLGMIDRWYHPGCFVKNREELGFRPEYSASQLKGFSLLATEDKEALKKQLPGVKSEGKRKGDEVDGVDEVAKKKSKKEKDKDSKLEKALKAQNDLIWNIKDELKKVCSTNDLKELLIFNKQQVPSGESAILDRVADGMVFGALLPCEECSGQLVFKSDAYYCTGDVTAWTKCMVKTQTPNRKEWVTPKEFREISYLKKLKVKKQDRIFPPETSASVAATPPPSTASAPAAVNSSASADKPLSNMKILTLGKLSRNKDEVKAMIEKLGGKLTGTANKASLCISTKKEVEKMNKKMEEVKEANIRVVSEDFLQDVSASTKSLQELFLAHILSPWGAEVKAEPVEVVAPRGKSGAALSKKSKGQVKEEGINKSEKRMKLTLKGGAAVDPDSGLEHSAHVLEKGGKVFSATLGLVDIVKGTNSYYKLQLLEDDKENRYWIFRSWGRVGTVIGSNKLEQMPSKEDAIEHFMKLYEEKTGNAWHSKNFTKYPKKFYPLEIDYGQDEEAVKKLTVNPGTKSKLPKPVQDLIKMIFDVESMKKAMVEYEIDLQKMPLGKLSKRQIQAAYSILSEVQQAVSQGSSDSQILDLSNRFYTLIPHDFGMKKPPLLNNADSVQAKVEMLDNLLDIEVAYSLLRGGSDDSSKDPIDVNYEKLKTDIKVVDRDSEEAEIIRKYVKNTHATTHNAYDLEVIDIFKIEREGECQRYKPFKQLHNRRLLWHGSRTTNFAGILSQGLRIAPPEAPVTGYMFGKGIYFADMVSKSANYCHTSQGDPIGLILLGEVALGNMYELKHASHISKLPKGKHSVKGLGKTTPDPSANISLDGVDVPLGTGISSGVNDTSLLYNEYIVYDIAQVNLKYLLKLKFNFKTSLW
UniProt P11387: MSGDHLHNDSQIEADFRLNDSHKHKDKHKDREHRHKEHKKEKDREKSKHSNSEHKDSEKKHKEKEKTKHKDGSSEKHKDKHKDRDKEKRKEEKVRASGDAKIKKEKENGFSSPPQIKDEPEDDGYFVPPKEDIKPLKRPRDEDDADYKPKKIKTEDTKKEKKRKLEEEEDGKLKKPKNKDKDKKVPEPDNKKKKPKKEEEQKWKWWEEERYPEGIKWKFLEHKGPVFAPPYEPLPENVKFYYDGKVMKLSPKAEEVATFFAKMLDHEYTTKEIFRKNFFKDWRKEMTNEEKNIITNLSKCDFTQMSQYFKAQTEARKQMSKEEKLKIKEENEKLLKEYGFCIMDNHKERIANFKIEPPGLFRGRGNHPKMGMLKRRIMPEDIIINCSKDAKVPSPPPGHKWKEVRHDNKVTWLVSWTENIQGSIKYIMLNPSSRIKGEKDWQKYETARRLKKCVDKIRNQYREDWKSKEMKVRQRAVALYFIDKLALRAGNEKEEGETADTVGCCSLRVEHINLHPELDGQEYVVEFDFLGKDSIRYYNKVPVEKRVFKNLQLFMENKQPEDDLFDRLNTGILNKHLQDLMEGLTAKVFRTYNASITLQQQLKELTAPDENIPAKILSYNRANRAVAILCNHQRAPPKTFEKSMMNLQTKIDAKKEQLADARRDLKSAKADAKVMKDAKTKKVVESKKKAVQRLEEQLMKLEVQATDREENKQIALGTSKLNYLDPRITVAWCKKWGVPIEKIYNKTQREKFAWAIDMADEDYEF

Assay [1] addresses Flag-tagged full-length CHD7 (human) (UniProt Q9P2D1). Kind of assay: co-IP; M2 beads; nucleic acids-free (Benzonase-treated) nuclear extracts from HEK293T cells overexpressing Flag-tagged full-length CHD7 or mock-transfected; washes with IP buffer containing 200 mM NaCl; western blot. (In general: Immunoblotting shows a protein as a band on a membrane.)
In assay [2] the target is T1, Flag-tagged truncated CHD7, N-terminal part (1-786 aa) (human) (UniProt Q9P2D1).
T1 sequence: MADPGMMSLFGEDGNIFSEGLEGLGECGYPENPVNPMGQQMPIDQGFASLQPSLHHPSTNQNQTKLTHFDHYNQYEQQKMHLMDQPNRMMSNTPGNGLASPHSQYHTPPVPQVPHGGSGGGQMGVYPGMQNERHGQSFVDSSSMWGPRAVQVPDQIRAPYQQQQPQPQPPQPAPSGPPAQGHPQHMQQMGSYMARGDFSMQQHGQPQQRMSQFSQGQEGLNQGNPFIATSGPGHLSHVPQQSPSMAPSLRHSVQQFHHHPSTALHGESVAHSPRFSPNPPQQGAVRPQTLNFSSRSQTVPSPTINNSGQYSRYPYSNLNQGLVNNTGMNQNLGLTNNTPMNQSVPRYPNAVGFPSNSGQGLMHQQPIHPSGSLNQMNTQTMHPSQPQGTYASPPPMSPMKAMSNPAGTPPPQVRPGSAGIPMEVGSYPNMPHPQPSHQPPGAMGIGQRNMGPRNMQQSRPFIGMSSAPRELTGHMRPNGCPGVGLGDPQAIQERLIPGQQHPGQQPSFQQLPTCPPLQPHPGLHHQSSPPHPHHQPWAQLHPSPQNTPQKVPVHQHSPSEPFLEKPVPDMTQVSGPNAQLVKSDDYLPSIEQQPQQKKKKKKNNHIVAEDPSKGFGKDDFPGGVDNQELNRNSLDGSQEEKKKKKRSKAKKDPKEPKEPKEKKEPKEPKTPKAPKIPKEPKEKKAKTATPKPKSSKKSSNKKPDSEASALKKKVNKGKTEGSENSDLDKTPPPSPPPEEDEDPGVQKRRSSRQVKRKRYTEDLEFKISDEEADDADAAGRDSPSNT
The assay is described as follows: co-IP; cell lysates from HEK293T cells transfected with Flag-tagged truncated CHD7 constructs, precipitated with M2 beads; western blot.

For assay [3], the target named is TOP2B (DNA topoisomerase IIb), endogenous in HEK293T (human (endogenous in HEK293T)) (UniProt Q02880). Kind of assay: co-IP; endogenous proteins, HEK293T cell lysates immunoprecipitated with an antibody against Top2b; co-precipitated Chd7 by western blot.

No constants are given. Whether binding was seen depends on the method and setting. In cells and extracts the contact can be indirect. Some results given as binding are weak or reduced against the parent protein; the word gives no strength. For some assays here: Where a sequence is shown, tags or fusion partners need not be part of it.

Take “BRG1, endogenous in HEK293T (from UniProt P51532 1-1647)”: the binding result in assay [1] is “binds”.
On the same count and under the same terms, the result for “CHD8, endogenous in HEK293T (from UniProt Q9HCK8 1-2581)” reads “binds”.
With “KU70, endogenous in HEK293T (from UniProt P12956 1-609)”, in assay [2], the binding entry was “no binding”.
Turning to “PARP1, endogenous in HEK293T (from UniProt P09874 1-1014) (enzyme)”, the binding entry in assay [1] is recorded as “binds”.
In the case of “TOP1, endogenous in HEK293T (from UniProt P11387 1-765) (enzyme)”, the binding result in assay [1] was “binds”.
Consider “TOP2B (DNA topoisomerase IIb), endogenous in HEK293T (from UniProt Q02880 1-1626) (enzyme)”, for which the binding entry in assay [1] and in assay [2] was “binds” each time.
Regarding “endogenous CHD7 (HEK293T) (from UniProt Q9P2D1 1-2997)”, the binding entry in assay [3] is “binds”.
